{"source": "the supplement of paper PMC3334620", "note": "In all, about 33,000 sequences were measured (“E-score (-0.5 to 0.5)”: median about -0.053, highest 2% from about 0.37 on). The list shows a part of the results.", "data": [{"biological_target": "Hap1 (UniProt P0CE41)", "sequence (P0CE41 whole entry, the tested form may be a part)": "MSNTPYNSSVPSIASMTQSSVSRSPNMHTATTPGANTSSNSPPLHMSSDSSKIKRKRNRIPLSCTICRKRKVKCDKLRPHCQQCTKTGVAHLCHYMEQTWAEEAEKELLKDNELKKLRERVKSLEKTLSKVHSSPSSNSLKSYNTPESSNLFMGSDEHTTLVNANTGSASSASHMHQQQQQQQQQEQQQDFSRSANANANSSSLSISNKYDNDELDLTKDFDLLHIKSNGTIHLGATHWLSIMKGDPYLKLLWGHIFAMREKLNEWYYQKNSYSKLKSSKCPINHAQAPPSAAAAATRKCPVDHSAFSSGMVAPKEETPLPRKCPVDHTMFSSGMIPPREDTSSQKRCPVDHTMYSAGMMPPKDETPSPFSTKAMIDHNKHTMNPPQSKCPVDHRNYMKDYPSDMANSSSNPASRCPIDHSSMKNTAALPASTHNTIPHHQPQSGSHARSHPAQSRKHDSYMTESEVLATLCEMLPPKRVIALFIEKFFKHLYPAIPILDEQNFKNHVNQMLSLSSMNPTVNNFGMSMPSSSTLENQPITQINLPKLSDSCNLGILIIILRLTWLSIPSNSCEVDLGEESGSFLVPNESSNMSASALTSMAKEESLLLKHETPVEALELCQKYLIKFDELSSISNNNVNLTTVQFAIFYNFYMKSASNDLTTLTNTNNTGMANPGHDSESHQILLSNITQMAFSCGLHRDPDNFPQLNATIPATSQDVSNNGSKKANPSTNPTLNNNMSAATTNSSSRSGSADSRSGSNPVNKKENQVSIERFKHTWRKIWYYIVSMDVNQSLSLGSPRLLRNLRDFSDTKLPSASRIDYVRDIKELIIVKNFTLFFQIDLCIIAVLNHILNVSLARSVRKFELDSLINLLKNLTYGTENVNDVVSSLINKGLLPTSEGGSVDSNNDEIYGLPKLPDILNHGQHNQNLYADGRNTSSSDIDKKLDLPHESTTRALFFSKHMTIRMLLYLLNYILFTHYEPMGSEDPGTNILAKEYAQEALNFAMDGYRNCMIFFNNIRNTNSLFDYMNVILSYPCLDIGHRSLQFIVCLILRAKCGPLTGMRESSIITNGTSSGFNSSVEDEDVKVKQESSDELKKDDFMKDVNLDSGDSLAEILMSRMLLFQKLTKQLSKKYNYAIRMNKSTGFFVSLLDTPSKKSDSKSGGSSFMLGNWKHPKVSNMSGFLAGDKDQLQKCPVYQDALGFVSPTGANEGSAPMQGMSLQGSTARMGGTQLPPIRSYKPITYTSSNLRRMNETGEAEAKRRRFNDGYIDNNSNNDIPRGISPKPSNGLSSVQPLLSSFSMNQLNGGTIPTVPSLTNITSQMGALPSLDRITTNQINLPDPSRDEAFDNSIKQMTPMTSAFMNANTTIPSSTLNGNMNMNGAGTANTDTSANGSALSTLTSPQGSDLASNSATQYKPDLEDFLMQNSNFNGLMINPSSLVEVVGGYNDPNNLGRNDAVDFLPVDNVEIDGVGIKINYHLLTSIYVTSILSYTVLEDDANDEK", "assay": "PBM E-score (8-mer binding enrichment) (E-score (-0.5 to 0.5)); higher = stronger / more preferred TF binding; most listed sequences are background and not binding sites", "conditions": "protein concentration: 200 nM; construct: GST-DNA-binding domain", "how_it_was_run": "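Universal all-10-mer Agilent arrays, fresh or stripped once, were converted to double-stranded form by primer extension. GST-tagged yeast transcription factors from PURExpress in vitro transcription/translation, full-length or DNA-binding domain only, were applied at about 100-200 nM and detected with fluorescent anti-GST. After masliner normalisation, the Universal PBM Analysis Suite scored each ungapped eight-base word together with its reverse complement by E-score.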", "values": [{"sequence": "CCTTATAA", "PBM E-score": 0.0568}, {"sequence": "TCAGCGGA", "PBM E-score": 0.185}, {"sequence": "GTGTGGGA", "PBM E-score": -0.0279}, {"sequence": "CATTCATC", "PBM E-score": -0.09}, {"sequence": "CGAAAACG", "PBM E-score": 0.169}, {"sequence": "CGTTTCAG", "PBM E-score": 0.116}, {"sequence": "AGCATGAG", "PBM E-score": -0.147}, {"sequence": "CATTTACC", "PBM E-score": -0.0349}, {"sequence": "ACGTACCC", "PBM E-score": 0.0098}, {"sequence": "CACAGTCA", "PBM E-score": -0.284}, {"sequence": "GCGCCAGC", "PBM E-score": -0.136}, {"sequence": "AAATGGAT", "PBM E-score": -0.174}, {"sequence": "ACAGGGGG", "PBM E-score": -0.243}, {"sequence": "ATCCCGGA", "PBM E-score": 0.36}, {"sequence": "CAACCAGC", "PBM E-score": -0.0709}, {"sequence": "CGAGTATC", "PBM E-score": 0.129}, {"sequence": "ATCGTGGC", "PBM E-score": -0.216}, {"sequence": "TGCAAAAA", "PBM E-score": -0.155}, {"sequence": "GGGGATTA", "PBM E-score": 0.3}, {"sequence": "ATTTCTCG", "PBM E-score": 0.173}, {"sequence": "CCGGTTGA", "PBM E-score": 0.317}, {"sequence": "GGCTGATA", "PBM E-score": 0.0794}, {"sequence": "AGGAGCGC", "PBM E-score": 0.0362}, {"sequence": "ACGAGCGG", "PBM E-score": 0.161}, {"sequence": "GTACGGAC", "PBM E-score": 0.26}, {"sequence": "GGCTGCCC", "PBM E-score": -0.0614}, {"sequence": "GAATTACC", "PBM E-score": 0.221}, {"sequence": "AGACGACC", "PBM E-score": -0.189}, {"sequence": "AAAGAAAG", "PBM E-score": -0.067}, {"sequence": "GCTAGTCC", "PBM E-score": 0.0704}, {"sequence": "AGCGACCT", "PBM E-score": -0.0522}, {"sequence": "AATTCTCA", "PBM E-score": -0.214}, {"sequence": "AATAGCAT", "PBM E-score": -0.0964}, {"sequence": "AGCTCTGA", "PBM E-score": -0.25}, {"sequence": "AGGGCCGC", "PBM E-score": 0.177}, {"sequence": "ACTTTCGC", "PBM E-score": -0.117}, {"sequence": "AACCAGGT", "PBM E-score": -0.208}, {"sequence": "GAAGTTCA", "PBM E-score": 0.0133}, {"sequence": "AACCGCGC", "PBM E-score": 0.157}, {"sequence": "AGGTGGAG", "PBM E-score": -0.173}, {"sequence": "CGATGCGA", "PBM E-score": 0.126}, {"sequence": "CTAGCTAG", "PBM E-score": -0.341}, {"sequence": "GAAACAAA", "PBM E-score": 0.0047}, {"sequence": "ACCATGGA", "PBM E-score": -0.247}, {"sequence": "GCGTGGAC", "PBM E-score": -0.0334}, {"sequence": "CGTGTCTA", "PBM E-score": -0.0688}, {"sequence": "GCGACGCA", "PBM E-score": -0.14}, {"sequence": "TGTACTAA", "PBM E-score": -0.126}, {"sequence": "ACGCGAAC", "PBM E-score": -0.0222}, {"sequence": "CGAGATAC", "PBM E-score": 0.188}, {"sequence": "GTGGTCAA", "PBM E-score": -0.257}, {"sequence": "GAAATACA", "PBM E-score": -0.109}, {"sequence": "AAGAAGAG", "PBM E-score": -0.141}, {"sequence": "CTCTGGGA", "PBM E-score": -0.133}, {"sequence": "AGTCCACC", "PBM E-score": -0.153}, {"sequence": "AGTGGGCA", "PBM E-score": -0.0283}, {"sequence": "GATCAATA", "PBM E-score": 0.0534}, {"sequence": "CGTCCACG", "PBM E-score": 0.00086}, {"sequence": "CAAGTAGC", "PBM E-score": -0.214}, {"sequence": "ATAATTCG", "PBM E-score": 0.102}, {"sequence": "CGGGCTAC", "PBM E-score": 0.145}, {"sequence": "AGCTTTTA", "PBM E-score": 0.0284}, {"sequence": "CTAACTGA", "PBM E-score": -0.0638}, {"sequence": "TATGAGAA", "PBM E-score": -0.215}, {"sequence": "AGGAACAT", "PBM E-score": -0.241}, {"sequence": "CTCAGCTA", "PBM E-score": -0.214}, {"sequence": "AGAAACTA", "PBM E-score": -0.191}, {"sequence": "CCCCGACA", "PBM E-score": 0.302}, {"sequence": "AATTCCGT", "PBM E-score": 0.414}, {"sequence": "TGAGCACA", "PBM E-score": -0.227}, {"sequence": "CAATTCAC", "PBM E-score": -0.162}, {"sequence": "CCTCACGC", "PBM E-score": -0.207}, {"sequence": "ACGTACCT", "PBM E-score": -0.321}, {"sequence": "ACGCATGA", "PBM E-score": -0.213}, {"sequence": "CGGTGCAA", "PBM E-score": 0.18}, {"sequence": "TGCCGCAA", "PBM E-score": -0.0451}, {"sequence": "CTCACCAG", "PBM E-score": -0.0921}, {"sequence": "ACCAAGTC", "PBM E-score": 0.0115}, {"sequence": "CAGACGGC", "PBM E-score": -0.172}, {"sequence": "GCACAGGC", "PBM E-score": -0.0809}, {"sequence": "CGGGCCGC", "PBM E-score": 0.263}, {"sequence": "AGCAGGCG", "PBM E-score": -0.0396}, {"sequence": "GACGTTGA", "PBM E-score": 0.00492}, {"sequence": "AACATTAG", "PBM E-score": -0.263}, {"sequence": "TACAAAAA", "PBM E-score": -0.133}, {"sequence": "GATATCCA", "PBM E-score": 0.0253}, {"sequence": "ATCAAAAA", "PBM E-score": -0.0323}, {"sequence": "CGTGACTC", "PBM E-score": -0.196}, {"sequence": "CGTCACAC", "PBM E-score": -0.0976}, {"sequence": "CCCTCCAC", "PBM E-score": -0.233}, {"sequence": "CAGCAGGG", "PBM E-score": -0.221}, {"sequence": "ATTACCAG", "PBM E-score": -0.0617}, {"sequence": "ACATCTCA", "PBM E-score": -0.188}, {"sequence": "TTCTAGAA", "PBM E-score": -0.121}, {"sequence": "ACAACTGG", "PBM E-score": 0.101}, {"sequence": "ACGGGTCC", "PBM E-score": 0.266}, {"sequence": "ATAAGACG", "PBM E-score": -0.207}, {"sequence": "ACCGCGCG", "PBM E-score": 0.232}, {"sequence": "TATCCTGA", "PBM E-score": -0.0806}, {"sequence": "TTGAACAA", "PBM E-score": -0.168}, {"sequence": "AAAGTGTA", "PBM E-score": -0.15}, {"sequence": "TCGCTTAA", "PBM E-score": 0.0507}, {"sequence": "AGACCGTA", "PBM E-score": -0.00331}, {"sequence": "CCCGGCAG", "PBM E-score": 0.21}, {"sequence": "CAAGGATC", "PBM E-score": -0.132}, {"sequence": "ACTAGATC", "PBM E-score": -0.129}, {"sequence": "ATGCGTGG", "PBM E-score": -0.22}, {"sequence": "ACCTAACG", "PBM E-score": -0.0717}, {"sequence": "ATCTAAGG", "PBM E-score": -0.189}, {"sequence": "ATCCGTGA", "PBM E-score": 0.271}, {"sequence": "GACCTCGA", "PBM E-score": -0.0256}, {"sequence": "CATGTTTC", "PBM E-score": -0.0181}, {"sequence": "CTCGTAAA", "PBM E-score": -0.0935}, {"sequence": "TGATTGAA", "PBM E-score": -0.126}, {"sequence": "AGGCCCGA", "PBM E-score": 0.279}, {"sequence": "ATTTATCA", "PBM E-score": 0.0206}, {"sequence": "ACGAAAGA", "PBM E-score": -0.148}, {"sequence": "ATGACGCG", "PBM E-score": -0.0356}, {"sequence": "CTCACTTA", "PBM E-score": -0.178}, {"sequence": "CGCCCTAG", "PBM E-score": -0.0467}, {"sequence": "CACGTGGA", "PBM E-score": -0.166}, {"sequence": "AACTGTCC", "PBM E-score": -0.102}, {"sequence": "CACTTAGA", "PBM E-score": -0.054}, {"sequence": "GTAACAGA", "PBM E-score": 0.128}, {"sequence": "CGTTACAA", "PBM E-score": -0.0875}, {"sequence": "GGACTCAA", "PBM E-score": 0.172}, {"sequence": "ATAACGAG", "PBM E-score": -0.151}, {"sequence": "GGAACGCA", "PBM E-score": 0.0123}, {"sequence": "GAGCGGCA", "PBM E-score": 0.118}, {"sequence": "CAAGCCCC", "PBM E-score": 0.0196}, {"sequence": "CAGTGACA", "PBM E-score": -0.253}, {"sequence": "ATATAAAT", "PBM E-score": 0.111}, {"sequence": "AACCCAAA", "PBM E-score": -0.138}, {"sequence": "ACTAGCTG", "PBM E-score": -0.156}, {"sequence": "CCCGCGAC", "PBM E-score": 0.195}, {"sequence": "AGTTAGCG", "PBM E-score": 0.09}, {"sequence": "GGTATACC", "PBM E-score": 0.212}, {"sequence": "CACCGAGC", "PBM E-score": 0.297}, {"sequence": "AGTGTTCC", "PBM E-score": 0.05}, {"sequence": "GGGGACCA", "PBM E-score": -0.153}, {"sequence": "CCATGCAC", "PBM E-score": -0.107}, {"sequence": "ACTTTTCC", "PBM E-score": 0.0901}, {"sequence": "ATAGAGAG", "PBM E-score": -0.249}, {"sequence": "TGTTGCAA", "PBM E-score": 0.0983}, {"sequence": "TATGAGCA", "PBM E-score": -0.146}, {"sequence": "CTTATGAC", "PBM E-score": 0.0491}, {"sequence": "GAATTCGA", "PBM E-score": -0.0583}, {"sequence": "CGTTATTC", "PBM E-score": 0.164}, {"sequence": "AGCATGTA", "PBM E-score": -0.285}, {"sequence": "GCTGAGAA", "PBM E-score": -0.109}, {"sequence": "CAAGCTCA", "PBM E-score": -0.221}, {"sequence": "AGCGGTGG", "PBM E-score": 0.162}, {"sequence": "CGATTATA", "PBM E-score": 0.142}, {"sequence": "AAGTCCTC", "PBM E-score": 0.0366}, {"sequence": "AATCCTGT", "PBM E-score": -0.00559}, {"sequence": "ACCGAGGT", "PBM E-score": 0.29}, {"sequence": "CGAATAAC", "PBM E-score": 0.112}, {"sequence": "GTGTTCAA", "PBM E-score": 0.0233}, {"sequence": "GAGCCAGC", "PBM E-score": -0.124}, {"sequence": "CCTCACCG", "PBM E-score": 0.0689}, {"sequence": "CCCCCGAC", "PBM E-score": 0.336}, {"sequence": "AAAGCGGC", "PBM E-score": 0.0715}, {"sequence": "CTCTCTTA", "PBM E-score": -0.0903}, {"sequence": "CGAAGTTA", "PBM E-score": 0.121}, {"sequence": "ACTTTAAA", "PBM E-score": 0.157}, {"sequence": "AGACGTGG", "PBM E-score": -0.162}, {"sequence": "AGTGCTCA", "PBM E-score": -0.172}, {"sequence": "TATATTAA", "PBM E-score": 0.0308}, {"sequence": "ACTGCGAC", "PBM E-score": 0.122}, {"sequence": "TAACTCGA", "PBM E-score": 0.052}, {"sequence": "CAGTAGCG", "PBM E-score": 0.0723}, {"sequence": "AACTTGTC", "PBM E-score": -0.00823}]}]}
